# This is one part of the list.
# B1: PX9937F-bfa-516-16-516 (Bacteroides fragilis) (protein)
# chain: LDIDPTSSIADSNYWKTEAQFSTFNVGLHALLRECSFNFFLLGEPRADIYGDVPFGGEATQGMERLPFNTINKENTGISNFAGMYKVINQINLMIAKTKETTVLSEAGKNYYLGEAYGMRAYLYFHLLRSWGDVILYLDYTNGASLDLSNLSKAASPAEEVMKQIKEDITASEKGFGSDYSFKYGRYYWSMAATQMLKGEVYLWSGRQMGGGTADYTTAKTALQSIVSNANVSLQDDFSKVFAYNNKDNSEIIFSIRNAKDEYNMWDDRFRQNLVPQQAYMTSTYCNKEGVSFKDLPEGQLNGLIRLQIRYDLYNKAFRDGDTRKDASMTAVYQKQQDGTVKYIAPFCNKYQGVLLDGASQRSFLNDYPIYRYADCLLLLAEAKALLGEDPTAEINQVRERAYGKEFFEANKATLAYPNDKGDFYTDNKYMSGDEDPLEAILKERMREFMFEGKRWYDLRLLGADYVTKRTSAVATRLLWPINESVLTDNPALKQTPGYQN
# How the values were obtained:
# Assay in all cases: glycan array binding signal (z-score within array); higher = stronger binding
# Conditions in all cases: glycan notation: IUPAC condensed, linker removed
# [1] = target: GlcNAc(b1-2)[GlcNAc(b1-4)]Man(a1-3)[GlcNAc(b1-4)][GlcNAc(b1-2)[GlcNAc(b1-6)]Man(a1-6)]Man(b1-4)GlcNAc(b1-4)GlcNAc
# Summary of the method: (§1)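 The binding signal is a Z-score computed within each array and averaged over linkers. Arrays of the same protein sequence at different concentrations or buffers were also averaged together. Data originate from 3228 arrays in the Consortium for Functional Glycomics database, kept only where the protein sequence was available.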
# [2] = target: GlcNAc(b1-2)[GlcNAc(b1-4)]Man(a1-3)[GlcNAc(b1-4)][GlcNAc(b1-2)[GlcNAc(b1-6)]Man(a1-6)]Man(b1-4)GlcNAc(b1-4)[Fuc(a1-6)]GlcNAc
# Summary of the method: as §1
# [3] = target: GlcNAc(b1-2)[GlcNAc(b1-6)]Man(a1-6)[GlcNAc(b1-2)Man(a1-3)]Man(b1-4)GlcNAc(b1-4)GlcNAc
# Summary of the method: as §1
# [4] = target: GlcNAc(b1-2)[GlcNAc(b1-6)]Man(a1-6)[GlcNAc(b1-2)Man(a1-3)]Man(b1-4)GlcNAc(b1-4)[Fuc(a1-6)]GlcNAc
# Summary of the method: as §1
# [5] = target: GlcNAc(b1-2)[GlcNAc(b1-6)]Man(a1-6)[GlcNAc(b1-4)][GlcNAc(b1-2)Man(a1-3)]Man(b1-4)GlcNAc(b1-4)GlcNAc
# Summary of the method: as §1
# [6] = target: GlcNAc(b1-3)Fuc
# Summary of the method: as §1
# [7] = target: GlcNAc(b1-3)Gal
# Summary of the method: as §1
# [8] = target: GlcNAc(b1-3)Gal(b1-3)GalNAc
# Summary of the method: as §1
# [9] = target: GlcNAc(b1-3)Gal(b1-4)Glc
# Summary of the method: as §1
# [10] = target: GlcNAc(b1-3)Gal(b1-4)GlcNAc
# Summary of the method: as §1
# [11] = target: GlcNAc(b1-3)Gal(b1-4)GlcNAc(b1-2)Man(a1-3)[GlcNAc(b1-3)Gal(b1-4)GlcNAc(b1-2)Man(a1-6)]Man(b1-4)GlcNAc(b1-4)GlcNAc
# Summary of the method: as §1
# [12] = target: GlcNAc(b1-3)Gal(b1-4)GlcNAc(b1-2)Man(a1-3)[GlcNAc(b1-3)Gal(b1-4)GlcNAc(b1-2)Man(a1-6)]Man(b1-4)GlcNAc(b1-4)[Fuc(a1-6)]GlcNAc
# Summary of the method: as §1
# [13] = target: GlcNAc(b1-3)Gal(b1-4)GlcNAc(b1-2)[GlcNAc(b1-3)Gal(b1-4)GlcNAc(b1-6)]Man(a1-6)[GlcNAc(b1-3)Gal(b1-4)GlcNAc(b1-2)Man(a1-3)]Man(b1-4)GlcNAc(b1-4)GlcNAc
# Summary of the method: as §1
# [14] = target: GlcNAc(b1-3)Gal(b1-4)GlcNAc(b1-3)Gal(b1-4)GlcNAc
# Summary of the method: as §1
# [15] = target: GlcNAc(b1-3)Gal(b1-4)GlcNAc(b1-3)Gal(b1-4)GlcNAc(b1-2)Man(a1-3)[GlcNAc(b1-3)Gal(b1-4)GlcNAc(b1-3)Gal(b1-4)GlcNAc(b1-2)Man(a1-6)]Man(b1-4)GlcNAc(b1-4)GlcNAc
# Summary of the method: as §1
# [16] = target: GlcNAc(b1-3)Gal(b1-4)GlcNAc(b1-3)Gal(b1-4)GlcNAc(b1-2)Man(a1-3)[GlcNAc(b1-3)Gal(b1-4)GlcNAc(b1-3)Gal(b1-4)GlcNAc(b1-2)Man(a1-6)]Man(b1-4)GlcNAc(b1-4)[Fuc(a1-6)]GlcNAc
# Summary of the method: as §1
# [17] = target: GlcNAc(b1-3)Gal(b1-4)GlcNAc(b1-3)Gal(b1-4)GlcNAc(b1-2)[GlcNAc(b1-3)Gal(b1-4)GlcNAc(b1-3)Gal(b1-4)GlcNAc(b1-6)]Man(a1-6)[GlcNAc(b1-3)Gal(b1-4)GlcNAc(b1-3)Gal(b1-4)GlcNAc(b1-2)Man(a1-3)]Man(b1-4)GlcNAc(b1-4)[Fuc(a1-6)]GlcNAc
# Summary of the method: as §1
# [18] = target: GlcNAc(b1-3)Gal(b1-4)GlcNAc(b1-3)Gal(b1-4)GlcNAc(b1-3)Gal(b1-4)GlcNAc(b1-2)Man(a1-3)[GlcNAc(b1-3)Gal(b1-4)GlcNAc(b1-3)Gal(b1-4)GlcNAc(b1-3)Gal(b1-4)GlcNAc(b1-2)Man(a1-6)]Man(b1-4)GlcNAc(b1-4)GlcNAc
# Summary of the method: as §1
# [19] = target: GlcNAc(b1-3)Gal(b1-4)GlcNAc(b1-3)Gal(b1-4)GlcNAc(b1-3)Gal(b1-4)GlcNAc(b1-2)Man(a1-3)[GlcNAc(b1-3)Gal(b1-4)GlcNAc(b1-3)Gal(b1-4)GlcNAc(b1-3)Gal(b1-4)GlcNAc(b1-2)Man(a1-6)]Man(b1-4)GlcNAc(b1-4)[Fuc(a1-6)]GlcNAc
# Summary of the method: as §1
# [20] = target: GlcNAc(b1-3)Gal(b1-4)GlcNAc(b1-3)Gal(b1-4)GlcNAc(b1-3)Gal(b1-4)GlcNAc(b1-2)[GlcNAc(b1-3)Gal(b1-4)GlcNAc(b1-3)Gal(b1-4)GlcNAc(b1-3)Gal(b1-4)GlcNAc(b1-6)]Man(a1-6)[GlcNAc(b1-3)Gal(b1-4)GlcNAc(b1-3)Gal(b1-4)GlcNAc(b1-3)Gal(b1-4)GlcNAc(b1-2)Man(a1-3)]Man(b1-4)GlcNAc(b1-4)[Fuc(a1-6)]GlcNAc
# Summary of the method: as §1
# [21] = target: GlcNAc(b1-3)Gal(b1-4)GlcNAc(b1-3)Gal(b1-4)GlcNAc(b1-3)Gal(b1-4)GlcNAc(b1-3)Gal(b1-4)GlcNAc(b1-2)Man(a1-3)[GlcNAc(b1-3)Gal(b1-4)GlcNAc(b1-3)Gal(b1-4)GlcNAc(b1-3)Gal(b1-4)GlcNAc(b1-3)Gal(b1-4)GlcNAc(b1-2)Man(a1-6)]Man(b1-4)GlcNAc(b1-4)GlcNAc
# Summary of the method: as §1
# [22] = target: GlcNAc(b1-3)Gal(b1-4)GlcNAc(b1-3)Gal(b1-4)GlcNAc(b1-3)Gal(b1-4)GlcNAc(b1-3)Gal(b1-4)GlcNAc(b1-2)Man(a1-3)[GlcNAc(b1-3)Gal(b1-4)GlcNAc(b1-3)Gal(b1-4)GlcNAc(b1-3)Gal(b1-4)GlcNAc(b1-3)Gal(b1-4)GlcNAc(b1-2)Man(a1-6)]Man(b1-4)GlcNAc(b1-4)[Fuc(a1-6)]GlcNAc
# Summary of the method: as §1
# [23] = target: GlcNAc(b1-3)Gal(b1-4)GlcNAc(b1-3)Gal(b1-4)GlcNAc(b1-3)Gal(b1-4)GlcNAc(b1-3)Gal(b1-4)GlcNAc(b1-2)[GlcNAc(b1-3)Gal(b1-4)GlcNAc(b1-3)Gal(b1-4)GlcNAc(b1-3)Gal(b1-4)GlcNAc(b1-3)Gal(b1-4)GlcNAc(b1-6)]Man(a1-6)[GlcNAc(b1-3)Gal(b1-4)GlcNAc(b1-3)Gal(b1-4)GlcNAc(b1-3)Gal(b1-4)GlcNAc(b1-3)Gal(b1-4)GlcNAc(b1-2)Man(a1-3)]Man(b1-4)GlcNAc(b1-4)[Fuc(a1-6)]GlcNAc
# Summary of the method: as §1
# [24] = target: GlcNAc(b1-3)Gal(b1-4)GlcNAc(b1-3)Gal(b1-4)GlcNAc(b1-3)GalNAc
# Summary of the method: as §1
# [25] = target: GlcNAc(b1-3)Gal(b1-4)GlcNAc(b1-3)GalNAc
# Summary of the method: as §1
# [26] = target: GlcNAc(b1-3)Gal(b1-4)GlcNAc(b1-3)[GlcNAc(b1-3)Gal(b1-4)GlcNAc(b1-3)]GalNAc
# Summary of the method: as §1
# [27] = target: GlcNAc(b1-3)Gal(b1-4)GlcNAc(b1-6)[Gal(b1-3)]GalNAc
# Summary of the method: as §1
# [28] = target: GlcNAc(b1-3)Gal(b1-4)GlcNAc(b1-6)[GlcNAc(b1-3)Gal(b1-3)]GalNAc
# Summary of the method: as §1
# [29] = target: GlcNAc(b1-3)Gal(b1-4)GlcNAc(b1-6)[GlcNAc(b1-3)]Gal(b1-4)GlcNAc
# Summary of the method: as §1
# [30] = target: GlcNAc(b1-3)GalNAc
# Summary of the method: as §1
# [31] = target: GlcNAc(b1-3)Man
# Summary of the method: as §1
# [32] = target: GlcNAc(b1-3)[GlcNAc(b1-4)][GlcNAc(b1-6)]GlcNAc
# Summary of the method: as §1
# [33] = target: GlcNAc(b1-3)[GlcNAc(b1-6)]Gal(b1-4)GlcNAc
# Summary of the method: as §1
# [34] = target: GlcNAc(b1-3)[GlcNAc(b1-6)]GalNAc
# Summary of the method: as §1
# [35] = target: GlcNAc(b1-4)Gal(b1-4)GlcNAc
# Summary of the method: as §1
# [36] = target: GlcNAc(b1-4)GlcNAc
# Summary of the method: as §1
# [37] = target: GlcNAc(b1-4)GlcNAc(b1-4)GlcNAc
# Summary of the method: as §1
# [38] = target: GlcNAc(b1-4)GlcNAc(b1-4)GlcNAc(b1-4)GlcNAc(b1-4)GlcNAc
# Summary of the method: as §1
binder,measurement,setting,value
B1,glycan array binding signal (z-score),[1],-0.291
same,glycan array binding signal (z-score),[2],-0.302
same,glycan array binding signal (z-score),[3],0.071
same,glycan array binding signal (z-score),[4],-0.191
same,glycan array binding signal (z-score),[5],-0.368
same,glycan array binding signal (z-score),[6],-0.267
same,glycan array binding signal (z-score),[7],-0.462
same,glycan array binding signal (z-score),[8],0.075
same,glycan array binding signal (z-score),[9],-0.403
same,glycan array binding signal (z-score),[10],-0.247
same,glycan array binding signal (z-score),[11],-0.089
same,glycan array binding signal (z-score),[12],1.82
same,glycan array binding signal (z-score),[13],-0.073
same,glycan array binding signal (z-score),[14],-0.275
same,glycan array binding signal (z-score),[15],0.054
same,glycan array binding signal (z-score),[16],-0.201
same,glycan array binding signal (z-score),[17],-0.078
same,glycan array binding signal (z-score),[18],0.988
same,glycan array binding signal (z-score),[19],-0.099
same,glycan array binding signal (z-score),[20],0.224
same,glycan array binding signal (z-score),[21],-0.089
same,glycan array binding signal (z-score),[22],-0.049
same,glycan array binding signal (z-score),[23],0.188
same,glycan array binding signal (z-score),[24],-0.334
same,glycan array binding signal (z-score),[25],-0.191
same,glycan array binding signal (z-score),[26],0.342
same,glycan array binding signal (z-score),[27],-0.127
same,glycan array binding signal (z-score),[28],-0.241
same,glycan array binding signal (z-score),[29],-0.049
same,glycan array binding signal (z-score),[30],-0.005
same,glycan array binding signal (z-score),[31],-0.36
same,glycan array binding signal (z-score),[32],0.037
same,glycan array binding signal (z-score),[33],-0.272
same,glycan array binding signal (z-score),[34],-0.242
same,glycan array binding signal (z-score),[35],-0.271
same,glycan array binding signal (z-score),[36],-0.052
same,glycan array binding signal (z-score),[37],-0.306
same,glycan array binding signal (z-score),[38],-0.172
